# The source gives no read counts; variants with many changes may rest on few reads.
# B1: CPEB3 Ribozyme (parent)
# chain: UAACAGGGGGCCACAGCAGAAGCGUUCACGUCGCAGCCCCUGUCAGAUUCUGGUGAAUCUGCGAAUUCUGCUGUAUAUCUC
# Variants of: B1
# Experiment: self-cleavage, relative activity (ratio to wild type); higher = more cleavage; in vitro, sequencing
# In short: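 Relative activity compares each variant's cleaved/total read fraction with that of the unmutated ribozyme. To get these fractions, barcoded CPEB3 ribozyme libraries from rounds of error-prone PCR were transcribed with T7 RNA polymerase for 5 hours at 37°C and then given 15 min of DNase I treatment before EDTA was added. The RNAs were reverse transcribed with template switching and sequenced on Illumina, and DNA sequencing linked barcodes to variants. A minimum of 5 reads applied, and three batches were averaged.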
row,Variant,self-cleavage
1,A28G U51A U66C,0.58
2,A28G U51A U72A,0.5
3,A28G U51A U78C,0.46
4,A28G U51C A56G,0.48
5,A28G U51G G52C,0.62
6,A28G U54A G63C A64U U72A,0.1
7,A28G U54C C68A A75U,0.12
8,A28G U54C C71G,0.08
9,A28G U54C U58A A65G,0.07
10,A28G U54C U67C U76A A77U,0.05
11,A28G U58C U69C U78C,0.13
12,A28G U60A A64U,0.11
13,A28G U60A U69C,0.25
14,A28G U60A U78C,0.13
15,A28G U60C U67A,0.06
16,A28G U67C U72C,0.18
17,A28G U69A U78C,0.23
18,A28G U69G U72G A75G U78C,0.24
19,A28G U74C U80A,1.21
20,A28U A35G A47G U54C U74A,1.25
21,A28U A35G A64G U78C,1.21
22,A28U A35G G36A A56G U74C,0.43
23,A28U A35G G55U U69A,0.46
24,A28U A35G U41C U76A,1.19

row,Variant,self-cleavage
1,A28U A35G U54G,1.21
2,A28U A35G U78C,1.26
3,A28U A35G U80C,1.33
4,A28U A35U A45G C62U U69C U74C,0.09
5,A28U A35U A56G U67A U69C A77C,0.07
6,A28U A35U A65G,0.4
7,A28U A35U U51A A57G U72A,0.09
8,A28U A45G A57G,0.31
9,A28U A45G U54C,0.41
10,A28U A45U U48A A56G U60C G70C U72C,0.02
11,A28U A45U U58C A65G,0.09
12,A28U A47G U72C,0.45
13,A28U A56G A65U U66C U80A,0.25
14,A28U A57G U60C,0.16
15,A28U A57G U60C U72G,0.16
16,A28U A64G U80C,0.85
17,A28U C29G A47G U51C U58C U76C,0.09
18,A28U C29G U69C,0.14
19,A28U C29U A56G U60A U69C,0.1
20,A28U C32U U41C,0.13
21,A28U C38A U43C U51A G61A,0.12
22,A28U C40U U41C U74C,1.01
23,A28U G30U A45G A56G U69C,0.05
24,A28U G30U C38A U43G,0.17

row,Variant,self-cleavage
1,A28U G33A U49C A56C U60C A64G,0.07
2,A28U G42A A77G,0.27
3,A28U G46C U48C G52A U72A U80C,0.17
4,A28U G53A A56G U76A,0.66
5,A28U U31A U67C,0.15
6,A28U U31C G42U U48C A56G U69C U80A,0.05
7,A28U U31C U67A,0.35
8,A28U U31C U74A,0.65
9,A28U U41A A45U G61A U80C,0.18
10,A28U U41A U43G U58C,0.18
11,A28U U41A U69C,0.15
12,A28U U41C A47G U60C,0.21
13,A28U U41C A57G U72A,0.29
14,A28U U41C G52A,0.94
15,A28U U41C U48C U58A C71U U78C,0.07
16,A28U U41C U69A,0.23
17,A28U U41C U80C,1.16
18,A28U U41G U51A U72C,0.12
19,A28U U43C G63U,0.79
20,A28U U43C U60A,0.08
21,A28U U48C U49C U76C,0.19
22,A28U U51A U54A,0.95
23,A28U U51C A56G,0.38
24,A28U U51C U72A,0.5

row,Variant,self-cleavage
1,A28U U51G A64G,0.83
2,A28U U54A A64G,0.86
3,A28U U54A U60C U76C,0.36
4,A28U U58C U67C U80C,0.1
5,A28U U66C U67C U72C U78G,0.1
6,A28U U67A C79A,0.39
7,A28U U69C U72C,0.2
8,A28U U72A A77U,0.13
9,C29A A35C A45G U58A U72C,0.2
10,C29A A35G A65G,0.38
11,C29A A47G U49C,0.26
12,C29A A47G U51G,0.59
13,C29A A57G U69C U74C,0.2
14,C29A C34U G42A U51G,0.06
15,C29A G52C U54A C71A G73C,0.11
16,C29A U31C A75G,0.07
17,C29A U41A A45U A47G U80C,0.11
18,C29A U41A U51A U72C,0.13
19,C29A U41C A64G,0.52
20,C29A U48C A65G U78A,0.06
21,C29A U48C U66C U80C,0.18
22,C29A U51A G70A,0.12
23,C29A U54C U72A U74G,0.55
24,C29A U58A U60A A64C U78A,0.14

row,Variant,self-cleavage
1,C29A U69C U80A,0.37
2,C29G A45G C68A,0.17
3,C29G A65G U76A,0.32
4,C29G C37U A45G,0.17
5,C29G C39G U41A U66C G70A,0.18
6,C29G U49C U69A,0.18
7,C29U A35U A47G U72C,0.14
8,C29U A35U U43C G52U,0.18
9,C29U A35U U54C,0.2
10,C29U A45G U76C,0.42
11,C29U A45U C81A,0.09
12,C29U A47G U66C,0.14
13,C29U A47G U78C C81A,0.6
14,C29U A57G U80C,0.44
15,C29U A65G U80C,0.17
16,C29U C32A A45G,0.07
17,C29U C32A C38A,0.2
18,C29U C34U U43C U48C,0.15
19,C29U C34U U43C U48C U51A,0.1
20,C29U C39A U60C G61A,0.08
21,C29U C40U U60C,0.19
22,C29U C50A U60C,0.09
23,C29U C59A G73A,0.29
24,C29U G33A C40U U43C A47G U48A A75G,0.03

row,Variant,self-cleavage
1,C29U G33A U48C A57G U80C,0.1
2,C29U G53A U54A U58C,0.19
3,C29U G53C A64G U72C U76A,0.44
4,C29U U31A A56U,0.18
5,C29U U31A U66C U80A,0.14
6,C29U U31C U43C C50A A75G,0.04
7,C29U U41A C44G U48C A57G U78A,0.13
8,C29U U41C A75G,0.38
9,C29U U41C C44G,0.26
10,C29U U43A U51A A56U,0.12
11,C29U U48A A57G,0.07
12,C29U U48C U66C U80C,0.33
13,C29U U51C A57G A77U U78C U80C,0.17
14,C29U U54C A56G U60A G63U A64G U80A,0.15
15,C29U U60G U72C,0.35
16,C29U U67A U69C,0.1
17,C29U U72A U80C,0.82
18,C29U U72C U80A,0.6
19,G30A A45U U49C A56C A65G U72C,0.05
20,G30A A45U U54C,0.11
21,G30A A45U U69A,0
22,G30A A56G U67C C79G,0.15
23,G30A C34A C68A,0.12
24,G30A C37U A45G,0.4

row,Variant,self-cleavage
1,G30A C37U U80A,0.11
2,G30A G53A U60A,0.2
3,G30A U31A U78C,0.09
4,G30A U31C U69G U74C A75U,0.13
5,G30A U41C A47G U72A,0.07
6,G30A U43A U74C U76C,0.27
7,G30A U43C A45U A47G U69C,0.11
8,G30A U48C U60C U74C U78C,0.12
9,G30A U49A A57G A65G,0.08
10,G30A U49C U69A U76G,0
11,G30A U49C U80C,0.16
12,G30A U51A U74G A75U,0.25
13,G30A U51C A64G,0.53
14,G30A U58C C68U,0.05
15,G30A U67C C81U,0.08
16,G30A U69C A77G U80A,0.36
17,G30C A35G U43C U54A,0.15
18,G30C A45G U78C,0.1
19,G30C U31C A45G,0.18
20,G30C U48G U74C,0.15
21,G30C U49A A56U,0.16
22,G30C U49C U51G U72C,0.12
23,G30U A35G A56U U78C,0.06
